# Reference: the supplement of paper PMC3334620
# Over roughly 33,000 sequences, “E-score (-0.5 to 0.5)” has its median near -0.011; the highest 2% begin near 0.28. The list shows a part of the results.
# Target: T1, Gcr1 (UniProt P07261)
# T1 sequence: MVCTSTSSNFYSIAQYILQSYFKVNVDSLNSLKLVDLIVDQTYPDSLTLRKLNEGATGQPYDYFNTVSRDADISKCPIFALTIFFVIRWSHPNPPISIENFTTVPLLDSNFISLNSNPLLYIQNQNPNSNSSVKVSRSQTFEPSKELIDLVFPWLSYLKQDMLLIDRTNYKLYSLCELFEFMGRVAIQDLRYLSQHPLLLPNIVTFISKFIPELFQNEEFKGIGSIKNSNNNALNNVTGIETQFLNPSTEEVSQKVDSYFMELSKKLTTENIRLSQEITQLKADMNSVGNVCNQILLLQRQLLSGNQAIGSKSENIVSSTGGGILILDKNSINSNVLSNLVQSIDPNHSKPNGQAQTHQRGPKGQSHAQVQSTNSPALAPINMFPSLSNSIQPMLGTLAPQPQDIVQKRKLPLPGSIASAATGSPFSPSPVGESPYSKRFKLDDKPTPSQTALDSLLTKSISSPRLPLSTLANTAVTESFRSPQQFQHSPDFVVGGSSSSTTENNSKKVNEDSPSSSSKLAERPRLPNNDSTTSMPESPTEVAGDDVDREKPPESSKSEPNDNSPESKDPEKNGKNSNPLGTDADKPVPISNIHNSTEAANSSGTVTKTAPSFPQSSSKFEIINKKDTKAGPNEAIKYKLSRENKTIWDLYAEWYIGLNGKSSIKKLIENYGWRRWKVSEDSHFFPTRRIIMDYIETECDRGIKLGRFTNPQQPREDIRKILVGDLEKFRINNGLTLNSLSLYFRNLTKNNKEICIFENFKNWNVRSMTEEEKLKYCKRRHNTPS
# Assay: PBM E-score (8-mer binding enrichment) (E-score (-0.5 to 0.5)); higher = stronger / more preferred TF binding; most listed sequences are background and not binding sites
# Settings: protein concentration: 100 nM; construct: GST-full length
# Method in brief: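 For each ungapped eight-base word taken together with its reverse complement, the Universal PBM Analysis Suite assigned an E-score. Binding data came from GST-tagged yeast transcription factors, applied at about 100-200 nM, on universal all-10-mer Agilent arrays made double-stranded by primer extension. Fluorescent anti-GST marked bound protein, and scans were normalised with masliner.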
row,Sequence,PBM E-score
1,CCATGAAG,-0.0409
2,ATAGACGA,0.248
3,GGGCCGTA,-0.21
4,AGGAGATA,-0.0392
5,GACCAGAC,-0.179
6,ACGCGGAG,-0.0537
7,CGGTCCCC,-0.00143
8,CGCTGTAG,0.0385
9,AACTCAGG,-0.0391
10,ATAGCAGG,0.0316
11,CGTCTTAG,-0.0362
12,AGGATTTG,-0.19
13,TGACGTAA,-0.155
14,CGCCTTGC,-0.0164
15,ACATGCCA,-0.0852
16,CCGCTCTC,-0.141
17,CTCGTCAG,-0.0444
18,ATAATGAA,0.237
19,ATTTAGGA,0.286
20,AAGAGTCC,0.115
21,CAGGCACC,0.245
22,GCCTCTGA,-0.0751
23,ACCCAGAA,0.149
24,AAATTAGG,0.228
25,AGGACTAC,-0.111

row,Sequence,PBM E-score
1,AATAATTC,0.107
2,ATCCCTGC,-0.0889
3,CATAAAAC,-0.00622
4,CCAGCTGA,-0.0822
5,TACAGCAA,0.0174
6,AACCCTTA,-0.0604
7,CGGGTTCC,0.411
8,AACTGAAC,0.0622
9,AGGAAGGA,-0.0785
10,GCTAGGCA,-0.109
11,ACACCTTC,-0.0029
12,ATTCGACA,-0.165
13,AGCCGCGG,-0.025
14,AGGACGGC,-0.141
15,GGGGGAGA,-0.233
16,CCGCCTGC,-0.0217
17,CCACTCAA,0.13
18,ATGTTGGG,0.119
19,CATGGCGA,-0.178
20,CTACCACA,0.126
21,ATATGACA,0.137
22,TAGAAACA,0.112
23,TCGAGTCA,-0.00551
24,GATATTGA,-0.0199
25,CACCAACA,0.0307

row,Sequence,PBM E-score
1,AGTGGCTC,0.218
2,CATCTGTA,0.0938
3,AAGAACTA,-0.0876
4,AGGTACAG,-0.0694
5,TCACAACA,-0.00323
6,GTCGCCAA,0.109
7,GAATTTAA,0.0974
8,CCGGCAGC,0.292
9,AGGCTCCG,0.0454
10,ATACACAA,-0.0947
11,AAACGGGG,0.111
12,GCTGTAAA,-0.109
13,ATCGCAGC,0.0295
14,CGTCTGGC,0.103
15,CTACGCAG,0.0122
16,ATCAAGGC,-0.162
17,CCGGGGTC,-0.198
18,ATGGCTGG,-0.226
19,ACATCCGT,-0.113
20,CACCAGCA,-0.0137
21,CTCAGCAC,0.00162
22,GATCACCA,-0.0057
23,ACGCAACA,0.12
24,CCTGGAAA,0.0979
25,CGGGTTGA,0.05

row,Sequence,PBM E-score
1,AAACGGCC,-0.0753
2,GTGATGCA,-0.129
3,GCTACCTA,0.207
4,GTTCCCTA,-0.0507
5,ACTACGAA,-0.0169
6,CCTTCGCA,-0.0622
7,TACGCGTA,0.239
8,GTGGAGAA,0.0248
9,AGTCCGCA,0.0295
10,CGTCCGTC,-0.127
11,AACGTCCG,0.035
12,GATCACTA,-0.0518
13,CGATAATA,-0.0596
14,TAAATTTA,0.239
15,TCTTGTCA,-0.00081
16,CACGATGC,0.273
17,AGTTTAGG,0.148
18,AACCATCT,0.0565
19,TAAAGCGA,0.0457
20,ATGGGTAC,0.189
21,ACAAAAGA,0.161
22,CTTCGTCC,-0.1
23,GAGCGGTA,0.0726
24,CATAGATC,-0.174
25,CGGAAAAC,-0.121

row,Sequence,PBM E-score
1,GCTGATAA,-0.015
2,GGACTACA,-0.189
3,CCCCTCGC,-0.0727
4,AATGCAGA,0.0129
5,CGTTCGAA,-0.208
6,ATTCGTCG,0.0418
7,ATTACAAT,-0.00128
8,CGCATGAG,-0.236
9,AACGTATA,0.0713
10,AAACTACG,-0.00816
11,AACTAAAA,0.145
12,CACTCCCA,-0.00658
13,TGGTGTAA,-0.106
14,ATAGTAGC,0.286
15,ATTTCTCC,0.0503
16,AACTTTCT,-0.0828
17,CGTGGCCA,-0.274
18,CCATTTTA,0.23
19,GGAAGGCA,0.0904
20,AATGCGCC,-0.0609
21,GTGTGACA,-0.168
22,CGGATCGC,-0.0306
23,GGACGGCA,0.0408
24,ATCAGGAC,0.101
25,AGGTTTCG,-0.0991

row,Sequence,PBM E-score
1,CTGACAAC,0.209
2,AGTATGGC,0.0308
3,GGAGCACC,0.0936
4,ATCGAGTG,-0.0784
5,ACTTGCCG,-0.176
6,AAGCTGAA,0.129
7,CGACCACG,-0.0758
8,CTGCAGCC,-0.167
9,ACGGCTTC,0.238
10,GAGAATGA,-0.0541
11,GTTGATAA,0.12
12,GGCCTCCA,0.172
13,AAGGTGCC,0.144
14,ATCGCCGC,0.136
15,GTCCGCGA,-0.0691
16,CGATGAAG,-0.0585
17,ATCTTCCG,-0.0893
18,ACCGATCT,-0.0886
19,AAGCATCG,0.0291
20,AGACGAAT,0.0336
21,GCCCCCGA,-0.0188
22,ATTTCTTA,0.12
23,ACTGTTGG,-0.0983
24,TAATAGCA,0.0558
25,ATACAAAT,0.118

row,Sequence,PBM E-score
1,CGTAAACG,-0.0302
2,CTTGGGAC,-0.187
3,ATAGCACA,-0.11
4,ACGGTTAC,0.0551
5,AGGTGTAT,0.00166
6,ATGATATA,-0.0438
7,CTACTCCC,-0.0747
8,ATTTAGTG,0.202
9,CCTTAACA,-0.0631
10,AGGGGATA,0.00288
11,CCGCAATC,0.00513
12,AGAGTCTC,-0.132
13,CCGACAGC,-0.308
14,ATACGAAG,0.293
15,AAATAAAC,0.0476
16,CGGGTTGC,0.0657
17,GACCGCCC,-0.0967
18,ACCGTTTC,0.166
19,CTACCGTA,-0.0889
20,AAGTCTGT,-0.321
21,CAGCGCTG,-0.245
22,CCGTAGGA,-0.0831
